Test results reported in the supplement of paper PMC4166925.
± gives the standard deviation of the averaged measurements. Whole data set: some 33,000 sequences, median “E-score (dimensionless, -0.5 to 0.5)” near -0.046, cut for the highest 2% near 0.36. Some of the results follow.

Each sequence was assayed on T1, SpTbr T-box DNA-binding domain (GST fusion) (assay: PBM E-score of 8-mer (E-score (dimensionless, -0.5 to 0.5)); Tbr is Tbrain of the sea star Patiria miniata (Pm) or the sea urchin Strongylocentrotus purpuratus (Sp); higher = stronger binding preference; most listed sequences are background and not binding sites). Settings: the construct has about 5 more residues each side.
T1 sequence: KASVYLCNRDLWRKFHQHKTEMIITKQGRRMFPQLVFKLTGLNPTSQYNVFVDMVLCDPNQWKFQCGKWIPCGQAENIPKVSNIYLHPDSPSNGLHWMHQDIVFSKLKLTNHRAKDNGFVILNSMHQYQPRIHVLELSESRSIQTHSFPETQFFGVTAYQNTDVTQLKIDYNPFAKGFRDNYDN
In short: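 Universal Agilent oligonucleotide arrays, made double-stranded by primer extension, were incubated with 200 nM GST-fused Tbr T-box DNA-binding domain in PBS (pH 7.5). The protein was expressed in BL21 E. coli at 20 °C and purified by glutathione affinity chromatography. After scanning and quantification, the Universal PBM Analysis Suite assigned an enrichment E-score to each ungapped 8-mer, averaged over duplicate arrays.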

Point of comparison: GTCGTCAC, “PBM E-score of 8-mer” value 0.337 ± 0.025. Against it:
- AGCATGCT — lower, -0.0183 ± 0.016
- CGACACAG — lower, 0.192 ± 0.079
- CCCAACAA — lower, 0.13 ± 0.0093
- CTAGATCC — lower, -0.352 ± 0.023
- CCTAAACC — lower, -0.0694 ± 0.039
- GCCTGTGA — lower, 0.187 ± 0.0033
- ACGGTGAA — lower, -0.167 ± 0.038
- ATTTTGGG — lower, -0.152 ± 0.032
- CAAACTTA — lower, 0.0728 ± 0.018
- CACATACA — lower, 0.253 ± 0.0045
- AACTACCA — lower, -0.0851 ± 0.02
- GGTCGTCA — lower, 0.129 ± 0.061
- CACCACGG — lower, 0.133 ± 0.0043
- GCTCTGCA — lower, -0.124 ± 0.035
- AAGCTTAA — lower, -0.247 ± 0.042
- CTAAACCC — lower, -0.144 ± 0.058
- TTCTCAAA — lower, -0.122 ± 0.02
- CCAGTTTC — lower, -0.00356 ± 0.037
- CACCCAGG — lower, 0.224 ± 0.045
- CCACGGAG — lower, -0.172 ± 0.095
- AAGCTAAG — lower, -0.185 ± 0.018
- TCCAAGAA — lower, -0.0873 ± 0.017
- CAGGGTCC — lower, 0.0172 ± 0.013
- CAGATTAC — lower, -0.0601 ± 0.0021
- ACGATGTA — lower, -0.136 ± 0.027
- CGATGATA — lower, -0.0245 ± 0.038
- CGAGCGTA — lower, -0.285 ± 0.044
- CATAGCTC — lower, -0.275 ± 0.021
- ACAGTGGA — lower, -0.0414 ± 0.025
- CTTAATAC — lower, 0.0605 ± 0.042
- ACCTCTCC — lower, -0.0172 ± 0.03
- AAAGATCG — lower, -0.00473 ± 0.012
- CGTCTCAG — lower, -0.173 ± 0.00035
- GAAGGGAA — lower, 0.0014 ± 0.008
- AACTCGAG — lower, -0.0237 ± 0.054
- GAATTTGA — lower, -0.2 ± 0.13
- TAAGACTA — lower, -0.189 ± 0.048
- GAGAATCC — lower, 0.0965 ± 0.055
- CAGGGAAG — lower, -0.2 ± 0.0062
- CGGAGAAC — lower, -0.0862 ± 0.029
- TACGCTCA — lower, -0.0725 ± 0.047
- GCGTCCAA — lower, -0.103 ± 0.0019
- GTGATAAA — within error, 0.305 ± 0.051
- TGGCGAAA — lower, 0.0423 ± 0.038
- TAGCACAA — lower, 0.117 ± 0.028
- CTTCAATA — lower, -0.187 ± 0.046
- AACAGTGA — lower, 0.0784 ± 0.029
- GTACAGTA — lower, 0.173 ± 0.036
- AGTCACAG — lower, 0.0674 ± 0.028
- CCCCCGCA — lower, -0.128 ± 0.051
- CAGAAAGG — lower, -0.2263 ± 0.0013
- TTACGCAA — lower, 0.00583 ± 0.056
- CTGTGTTC — lower, 0.0692 ± 0.0081
- AACGCATA — lower, 0.0089 ± 0.0093
- CAATACCC — lower, -0.159 ± 0.02
- TCCGAAGA — lower, -0.307 ± 0.0031
- CGATGGCA — lower, 0.165 ± 0.0061
- CGCAATAG — lower, -0.0156 ± 0.11
- ACCGACGG — lower, -0.13 ± 0.045
- AATTGTAA — lower, -0.124 ± 0.12
- ACAGGGAA — lower, -0.273 ± 0.018
- AGCCCAGC — lower, -0.267 ± 0.0077
- AGCTAATC — lower, -0.0328 ± 0.0048
- TAGCCAGA — lower, -0.326 ± 0.06
- GTCCACGA — lower, -0.0408 ± 0.034
- GGAGCTAC — lower, -0.155 ± 0.037
- AGAGTCTG — lower, -0.33 ± 0.089
- ACGCTCGC — lower, 0.19 ± 0.084
- TGTTACAA — lower, 0.247 ± 0.046
- GTACTCGA — lower, -0.00204 ± 0.0087
- GAGATCTA — lower, -0.0537 ± 0.0086
- CATATGAA — lower, -0.148 ± 0.044
- GCCCACCA — lower, -0.178 ± 0.058
- CCCAAGCG — lower, -0.0978 ± 0.034
- AACTTGTA — lower, -0.0543 ± 0.038
- ATTAACAC — higher, 0.45 ± 0.015
- CTTTGGTA — lower, -0.023 ± 0.017
- AGGAACGG — lower, 0.0852 ± 0.053
- CTTAAAGA — lower, -0.0599 ± 0.027
- CATAACAG — lower, 0.000675 ± 0.037
- GAGTGTCA — higher, 0.4478 ± 0.0016
- AGAGTGCA — lower, 0.127 ± 0.04
- TAGACGAA — lower, -0.149 ± 0.054
- AAGAACCC — lower, -0.0115 ± 0.01
- ACCATAAA — lower, 0.045 ± 0.039
- CCCAATAC — lower, -0.222 ± 0.014
- ATTTACCC — lower, -0.058 ± 0.013
- GGAGTGTA — lower, 0.0111 ± 0.00078
- ATTTCTAC — lower, -0.132 ± 0.011
- ACTACTTG — lower, 0.154 ± 0.023
- GCACGTGA — lower, 0.224 ± 0.057
- AACTTAAC — lower, 0.0557 ± 0.049
- CAATCCCG — lower, -0.0318 ± 0.046
- GAAGCACA — lower, -0.162 ± 0.028
- ATACCGTG — lower, 0.0874 ± 0.021
- CCCCGGGG — lower, -0.33 ± 0.023
- ACCTGGGC — lower, -0.0609 ± 0.0078
- GGTTGAAC — lower, -0.164 ± 0.024
- CATTAACG — lower, 0.135 ± 0.043
- AAGAATCA — lower, 0.0277 ± 0.0083
- GCGTGTCC — lower, 0.196 ± 0.035
- ACACATGT — within error, 0.345 ± 0.016
- CATTCAGA — lower, 0.0843 ± 0.014
- ATCCGCTA — lower, 0.0409 ± 0.019
- ATTAAGAC — lower, -0.0771 ± 0.015
- CCTGATTC — lower, -0.134 ± 0.041
- ATATCACG — lower, 0.223 ± 0.014
- CGCATAAA — lower, -0.128 ± 0.0037
- GCACTCAA — lower, 0.0216 ± 0.026
- ACCCCGGA — lower, 0.0394 ± 0.01
- TGTACACA — lower, 0.093475 ± 3.5e-05
- AAAAGGCA — lower, 0.054 ± 0.052
- AAAGTGCT — within error, 0.306 ± 0.033
- AGCACCGA — lower, -0.094 ± 0.013
- ATACTGGA — lower, -0.0359 ± 0.026
- AAAGGATT — lower, -0.147 ± 0.0067
- CAACCACA — lower, 0.032 ± 0.086
- CTGACAAA — lower, 0.0345 ± 0.084
- AAGGCAAT — lower, -0.107 ± 0.068
- ATAGCCTG — lower, -0.136 ± 0.045
- AAGCCCAG — lower, -0.329 ± 0.076
- GGTGTTGA — higher, 0.4631 ± 0.0038
- CGCCCCGC — lower, 0.0926 ± 0.031
- ACATAGAC — lower, -0.2041 ± 0.0013
- GACTGCAA — lower, 0.0127 ± 0.067
- ACACATCC — higher, 0.388 ± 0.024
- AACGTACT — lower, -0.194 ± 0.03
- TCCAATAA — lower, -0.0798 ± 0.025
- CTAGAGTC — lower, -0.125 ± 0.016
- AGAGACTC — lower, -0.276 ± 0.031
- CGAGTGCG — lower, 0.25 ± 0.026
- AAGGCATC — lower, -0.0866 ± 0.0022
- CTAAAGCA — lower, -0.0564 ± 0.041
- ATGTATCG — lower, 0.0705 ± 0.031
- ATCAGGTG — higher, 0.386 ± 0.015
- GTGTAAAC — within error, 0.367 ± 0.02
- ACCGGGGA — lower, -0.298 ± 0.018
- ACACTGCA — lower, 0.209 ± 0.011
- ACGTTTGG — lower, -0.0682 ± 0.09
- AGCCAACC — lower, -0.0668 ± 0.029
- AAGACGAC — lower, -0.0135 ± 0.083
- TGAGATCA — lower, 0.191 ± 0.018
- CTTCTTCC — lower, -0.00617 ± 0.11
- ACCAGAAC — lower, -0.153 ± 0.031
- AGAAAGGA — lower, -0.196 ± 0.056
- ATTTAACA — lower, 0.229 ± 0.08
- AATCAAAT — lower, -0.219 ± 0.029
- CGCGTCAG — within error, 0.303 ± 0.038
- GAGAGGAA — lower, -0.0238 ± 0.039
- ATACTCAT — lower, -0.14 ± 0.046
- CCAATTCC — lower, 0.0102 ± 0.0014
- ATTATCGC — lower, 0.295 ± 0.0048
- CGGAAAAA — lower, 0.019 ± 0.025
- AACTGTGG — lower, 0.128 ± 0.0018
- AGGCAGGC — lower, -0.0653 ± 0.1
- ATGGACAA — lower, 0.101 ± 0.003
- AGGGTATG — lower, -0.302 ± 0.025
- GATACACA — lower, 0.0102 ± 0.027
- CATTTTGG — lower, -0.276 ± 0.12
- CTAAATCA — lower, -0.0274 ± 0.098
- AGAAATAG — lower, -0.0874 ± 0.0029
- GTACCCGA — lower, -0.24 ± 0.054
- ACACTGCT — lower, 0.149 ± 0.023
- CTCTCCGA — lower, -0.103 ± 0.059
- TGCCAGAA — lower, -0.0821 ± 0.012
- GAGAAGAA — lower, -0.0422 ± 0.057
- ACTGAGAG — lower, -0.16 ± 0.035
- AGCGATTG — lower, 0.0168 ± 0.0089
- ACTTCTAA — lower, 0.0716 ± 0.013
- GCCCGTCC — lower, -0.216 ± 0.0065
- TACTTGCA — lower, -0.06 ± 0.025
